From PubChem BioAssay (NCI)
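In this assay, cells in 96-well plates receive the compound at five concentrations for 48 hours. Endpoints are linearly interpolated between the surrounding concentrations. GI50: concentration for 50% inhibition of growth.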 Some entries of the source have several records that differ or are many. This list holds those alone. An entry can have further records. The records of an entry are repeats (runs, samples, wells, individuals or studies). Brackets tell where a record comes from. A, B and so on number the origins entry by entry.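 Definition used: TGI = concentration required for complete inhibition of growth.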

Legend:
Test in all cases: NCI-60 cell line screen, 48 h
SF-539 CNS = system: SF-539 CNS
LOX IMVI melanoma = system: LOX IMVI melanoma
786-0 renal = system: 786-0 renal
COLO 205 colon = system: COLO 205 colon
BT-549 breast = system: BT-549 breast
HOP-62 NSCLC = system: HOP-62 NSCLC
HT29 colon = system: HT29 colon
HL-60(TB) leukemia = system: HL-60(TB) leukemia
DU-145 prostate = system: DU-145 prostate
NCI-H226 lung = system: NCI-H226 lung
KM12 colon = system: KM12 colon
MCF7 breast = system: MCF7 breast
SR leukemia = system: SR leukemia
MDA-MB-435 = system: MDA-MB-435
T-47D breast = system: T-47D breast
SW-620 colon = system: SW-620 colon
HCT-15 colon = system: HCT-15 colon
EKVX NSCLC = system: EKVX NSCLC
SK-OV-3 ovarian = system: SK-OV-3 ovarian
M14 melanoma = system: M14 melanoma
UACC-257 melanoma = system: UACC-257 melanoma
UO-31 renal = system: UO-31 renal
U251 CNS = system: U251 CNS
HCC-2998 colon = system: HCC-2998 colon
CCRF-CEM leukemia = system: CCRF-CEM leukemia
NCI-H460 lung = system: NCI-H460 lung
OVCAR-5 ovarian = system: OVCAR-5 ovarian
ACHN renal = system: ACHN renal
PC-3 prostate = system: PC-3 prostate
NCI-H23 lung = system: NCI-H23 lung
MOLT-4 leukemia = system: MOLT-4 leukemia
SK-MEL-5 melanoma = system: SK-MEL-5 melanoma
HCT-116 colon = system: HCT-116 colon
SK-MEL-2 melanoma = system: SK-MEL-2 melanoma
A549 NSCLC = system: A549 NSCLC
CAKI-1 renal = system: CAKI-1 renal
RPMI-8226 leukemia = system: RPMI-8226 leukemia
UACC-62 melanoma = system: UACC-62 melanoma
SF-268 CNS = system: SF-268 CNS
SN12C renal = system: SN12C renal
MDA-MB-231 breast = system: MDA-MB-231 breast
A498 renal = system: A498 renal
SNB-19 CNS = system: SNB-19 CNS
SF-295 CNS = system: SF-295 CNS
NCI-H522 lung = system: NCI-H522 lung
IGROV1 ovarian = system: IGROV1 ovarian
OVCAR-8 ovarian = system: OVCAR-8 ovarian
RXF 393 renal = system: RXF 393 renal

COc1cc(C)c(-c2ccc(OC)c(=O)cc2C)c(OC)c1OC
GI50 (SF-539 CNS): 2.26 µM [sample A, 1 test] and > 100 µM [sample B, 1 test]
GI50 (LOX IMVI melanoma): 2.05 µM [sample A, 1 test] and > 100 µM [sample B, 1 test]
GI50 (786-0 renal): 4.49 µM [sample A, 1 test] and > 100 µM [sample B, 1 test]
GI50 (COLO 205 colon): 1.73 µM [sample A, 1 test] and > 100 µM [sample B, 1 test]
TGI (COLO 205 colon): 4.45 µM [sample A, 1 test] and > 100 µM [sample B, 1 test]
GI50 (BT-549 breast): 2.03 µM [sample A, 1 test] and > 100 µM [sample B, 1 test]
TGI (BT-549 breast): 6.57 µM [sample A, 1 test] and > 100 µM [sample B, 1 test]
GI50 (HOP-62 NSCLC): 3.79 µM [sample A, 1 test] and > 100 µM [sample B, 1 test]
GI50 (HT29 colon): 1.87 µM [sample A, 1 test] and > 100 µM [sample B, 1 test]
TGI (HT29 colon): 9.55 µM [sample A, 1 test] and > 100 µM [sample B, 1 test]
GI50 (HL-60(TB) leukemia): 684 nM [sample A, 1 test] and > 100 µM [sample B, 1 test]
TGI (HL-60(TB) leukemia): 7.91 µM [sample A, 1 test] and > 100 µM [sample B, 1 test]
GI50 (DU-145 prostate): 3.53 µM [sample A, 1 test] and > 100 µM [sample B, 1 test]
GI50 (NCI-H226 lung): 3.92 µM [sample A, 1 test] and > 100 µM [sample B, 1 test]
GI50 (KM12 colon): 1.61 µM [sample A, 1 test] and > 100 µM [sample B, 1 test]
GI50 (MCF7 breast): 785 nM [sample A, 1 test] and > 100 µM [sample B, 1 test]
GI50 (SR leukemia): 362 nM [sample A, 1 test] and > 100 µM [sample B, 1 test]
GI50 (MDA-MB-435): 270 nM [sample A, 1 test] and 72.2 µM [sample B, 1 test]
TGI (MDA-MB-435): 741 nM [sample A, 1 test] and > 100 µM [sample B, 1 test]
GI50 (T-47D breast): 7.02 µM [sample A, 1 test] and > 100 µM [sample B, 1 test]
GI50 (SW-620 colon): 1.24 µM [sample A, 1 test] and > 100 µM [sample B, 1 test]
GI50 (HCT-15 colon): 682 nM [sample A, 1 test] and > 100 µM [sample B, 1 test]
GI50 (EKVX NSCLC): 6.56 µM [sample A, 1 test] and > 100 µM [sample B, 1 test]
GI50 (SK-OV-3 ovarian): 2.59 µM [sample A, 1 test] and > 100 µM [sample B, 1 test]
GI50 (M14 melanoma): 849 nM [sample A, 1 test] and > 100 µM [sample B, 1 test]
GI50 (UACC-257 melanoma): 7.78 µM [sample A, 1 test] and > 100 µM [sample B, 1 test]
GI50 (UO-31 renal): 6.85 µM [sample A, 1 test] and > 100 µM [sample B, 1 test]
GI50 (U251 CNS): 2.97 µM [sample A, 1 test] and > 100 µM [sample B, 1 test]
GI50 (HCC-2998 colon): 2.82 µM [sample A, 1 test] and > 100 µM [sample B, 1 test]
GI50 (CCRF-CEM leukemia): 1.96 µM [sample A, 1 test] and > 100 µM [sample B, 1 test]
GI50 (NCI-H460 lung): 2.83 µM [sample A, 1 test] and > 100 µM [sample B, 1 test]
GI50 (OVCAR-5 ovarian): 4.34 µM [sample A, 1 test] and > 100 µM [sample B, 1 test]
GI50 (ACHN renal): 5.35 µM [sample A, 1 test] and > 100 µM [sample B, 1 test]
GI50 (PC-3 prostate): 2.29 µM [sample A, 1 test] and > 100 µM [sample B, 1 test]
GI50 (NCI-H23 lung): 4.03 µM [sample A, 1 test] and > 100 µM [sample B, 1 test]
GI50 (MOLT-4 leukemia): 2.64 µM [sample A, 1 test] and > 100 µM [sample B, 1 test]
GI50 (SK-MEL-5 melanoma): 3.13 µM [sample A, 1 test] and > 100 µM [sample B, 1 test]
GI50 (HCT-116 colon): 1.93 µM [sample A, 1 test] and > 100 µM [sample B, 1 test]
GI50 (SK-MEL-2 melanoma): 887 nM [sample A, 1 test] and > 100 µM [sample B, 1 test]
TGI (SK-MEL-2 melanoma): 6.65 µM [sample A, 1 test] and > 100 µM [sample B, 1 test]
GI50 (A549 NSCLC): 3.78 µM [sample A, 1 test] and > 100 µM [sample B, 1 test]
GI50 (CAKI-1 renal): 943 nM [sample A, 1 test] and > 100 µM [sample B, 1 test]
GI50 (RPMI-8226 leukemia): 4.12 µM [sample A, 1 test] and > 100 µM [sample B, 1 test]
GI50 (UACC-62 melanoma): 928 nM [sample A, 1 test] and > 100 µM [sample B, 1 test]
GI50 (SF-268 CNS): 5.46 µM [sample A, 1 test] and > 100 µM [sample B, 1 test]
GI50 (SN12C renal): 3.49 µM [sample A, 1 test] and > 100 µM [sample B, 1 test]
GI50 (MDA-MB-231 breast): 2.57 µM [sample A, 1 test] and > 100 µM [sample B, 1 test]
GI50 (A498 renal): 787 nM [sample A, 1 test] and > 100 µM [sample B, 1 test]
TGI (A498 renal): 4.54 µM [sample A, 1 test] and > 100 µM [sample B, 1 test]
GI50 (SNB-19 CNS): 2.96 µM [sample A, 1 test] and > 100 µM [sample B, 1 test]
GI50 (SF-295 CNS): 1.73 µM [sample A, 1 test] and > 100 µM [sample B, 1 test]
GI50 (NCI-H522 lung): 1.86 µM [sample A, 1 test] and > 100 µM [sample B, 1 test]
TGI (NCI-H522 lung): 5.35 µM [sample A, 1 test] and > 100 µM [sample B, 1 test]
GI50 (IGROV1 ovarian): 4.26 µM [sample A, 1 test] and > 100 µM [sample B, 1 test]
GI50 (OVCAR-8 ovarian): 3.38 µM [sample A, 1 test] and > 100 µM [sample B, 1 test]
GI50 (RXF 393 renal): 1.96 µM [sample A, 1 test] and > 100 µM [sample B, 1 test]
